Results from the supplement of paper PMC11417369.
± gives the standard deviation of the averaged measurements. The list shows a part of the results.

test system: PfAP2-LT AP2 domain (GST-tagged); assay: gcPBM binding intensity (ln(normalized median fluorescence intensity)); higher = stronger DNA binding
Method in brief: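 An Agilent 4 × 180k array carrying primer-extended double-stranded 36-bp intergenic genomic probes and negative controls received GST-tagged P. falciparum DNA-binding domains expressed in E. coli, about 25 μg on average, for 1 h. The binding buffer contained 1× PBS, 1% milk, 0.2 mg/ml BSA, 0.5% salmon testes DNA and 0.03% Triton X-100. Binding intensity is the top Masliner-normalised natural-log median intensity across replicate spots of either probe orientation, read after Alexa488 anti-GST antibody staining and a 488 nm scan.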

Row | Sequence | gcPBM binding intensity (ln)
1 | TATATATATATATATGCATGTACATATATTTGTTAT [TGCATGCA_site379] | 9.99 ± 0.4
2 | CATTTATATATATACACACACACAAAAAAAAAAAAA [CACACA_site2645] | 9.57 ± 0.49
3 | ATTTAACTAAAGAAGGCACACGTGTTTAAAAAAAAA [CACACA_site5241] | 8.7 ± 0.48
4 | GACGTTATGATACACATACACACAGGGATAAAAAAT [CACACA_site2882] | 9.3 ± 0.4
5 | AATATTATATTTTATTGTACTAATAAAAATATATGC [XGTACX_site5435] | 8.61 ± 0.4
6 | GAAACTTCAAGAAATGCACACAATAAAATAAATAAA [CACACA_site1549] | 9.06 ± 0.35
7 | AGCATTAAAAATGGAATGGAATTAAGCTATATATTA [CACACA_negctrl_site1571] | 8.86 ± 0.52
8 | AGTATATATTATATATATATATATATATTATATATG [TGCATGCA_negctrl_site99] | 8.86 ± 0.34
9 | ATAGAATATTATATTACACACAGAATAATAAAAAAT [CACACA_site86] | 9.13 ± 0.4
10 | ACATCTCTTATATATTCACACACATATATATAATTA [CACACA_site8424] | 9.21 ± 0.32
11 | TTTTTTTTTTAATTCGCACACTGTCTTCATGCAATT [CACACA_site4882] | 9.13 ± 0.52
12 | TTAAAAAATTTTTAAGCACACACATAGATAATATAT [CACACA_site8440] | 9.07 ± 0.44
13 | GCACATCTATATGAAACACACATGGAAACATCTCTT [CACACA_site7793] | 9.1 ± 0.38
14 | TGTATATATTATAAAAGTACATAATATTCTTAGATA [XGTACX_site5623] | 8.51 ± 0.48
15 | TTATCTTACATAAATTATAACAATAATATGTGTATA [XGTACX_negctrl_site379] | 8.47 ± 0.43
16 | CATTTCGAAAAAAAATGTACTTATTATATTTATATA [XGTACX_site6752] | 8.39 ± 0.42
17 | TTTTGTCTTATATGTTGTACAACGTAAACAAAAAAA [XGTACX_site4412] | 8.4 ± 0.46
18 | AAAAGAATATATAATTGTACTTAAAATATAATTAAG [XGTACX_site4484] | 8.52 ± 0.49
19 | TTTCGATTAAAAATTGTACAATATAAGGAGCACACA [GTGCAC_negctrl_site476] | 8.69 ± 0.44
20 | TAAAAAAAAAAATGAACATGCAACAATTGTGATGAA [TGCATGCA_site332] | 8.86 ± 0.49
21 | CTTTTTTTGACCTTAGTGCAAATAACTATATATTAT | 8.75 ± 0.44
22 | AACCACAGACATATAACACACATATACAATATATAT [CACACA_site5142] | 9.34 ± 0.43

Row | Sequence | gcPBM binding intensity (ln)
23 | ATGAAAATTATAAAGTGTACATATAGAAACATTTAC [XGTACX_site8047] | 8.78 ± 0.49
24 | ACTGTAACAATCATGGGTACAAATAAAATAATATCT [XGTACX_site99] | 8.94 ± 0.52
25 | ATGGGACATATATATACACACATATATATATATATA [CACACA_site1202] | 9.96 ± 0.24
26 | AAAAAAATTAAACATGAAGAATAAGGAACAAAAAAA [CACACA_negctrl_site1607] | 8.78 ± 0.55
27 | TTTAATCATATGTTATATAATAAGCCCCCCCCCCAA [CACACA_negctrl_site486] | 10.2 ± 0.17
28 | ATTTAAGTAGTACATACACACACATATACAAAAAGA [CACACA_site9317] | 9.46 ± 0.32
29 | TTACTAAAAATTATTAATAAATAATAATTATAAATT [GTGCAC_negctrl_site310] | 8.21 ± 0.5
30 | ATTTTTAAGCATATCAAAAAAAAAAAAAAAATTAAT [CACACA_negctrl_site980] | 8.27 ± 0.48
31 | TAAAAAGGAAAACACACACACACATATATATATATA [CACACA_site3588] | 10.2 ± 0.26
32 | TTTCCAATTAGTTTTGCATGTTGAAAAAATGTTGGA [TGCATGCA_site1035] | 8.29 ± 0.25
33 | TTATTATTAAGACACACACACAAAAAAAAAAAAAAA [CACACA_site6805] | 9.26 ± 0.46
34 | TATTTTAACTTCTCATGTACATATATTATGTCTATA [XGTACX_site249] | 9.02 ± 0.47
35 | TATCATAAACTTCCTTACTATACTTTTCTTATTCAT [CACACA_negctrl_site1341] | 8.71 ± 0.49
36 | CTTTGTAGTATATTAACACACAACTATTTATAATAT [CACACA_site3934] | 8.85 ± 0.37
37 | TTTTTAATAAAATGATTGATAATTATTAAATTAAAA [CACACA_negctrl_site488] | 7.92 ± 0.36
38 | TTGTGTTTGCGTAAATGTACGGAAAGACTTGAAGAC [XGTACX_site7235] | 8.9 ± 0.49
39 | TTGTTAGAGTATATTGAAAGGATAACCTTTTTTTAT [XGTACX_negctrl_site122] | 8.32 ± 0.45
40 | ACCATACATACATACACACACACACCCATATATATA [CACACA_site2917] | 10.2 ± 0.26
41 | TTTCATGTTTTAAAGTGTACATAAATATATTATATG [XGTACX_site3367] | 8.62 ± 0.42
42 | GGAAACACAATATATACACACATATATATATATATA [CACACA_site235] | 10.1 ± 0.021
43 | ACACTTAAATATTGTTGTACAAAATGATAAAATGTA [XGTACX_site4588] | 9.02 ± 0.45
44 | ATTTATATTATAATATGTACACAAAAAAAATTAGGA [XGTACX_site565] | 8.61 ± 0.38

Row | Sequence | gcPBM binding intensity (ln)
45 | TTATATAACCCTCATGCATGCTAAGAAAAAAAAAAC [TGCATGCA_site936] | 8.72 ± 0.35
46 | TTGATGTATACAATGTAGATTATTTAATATTTCAAT [GTGCAC_negctrl_site203] | 8.48 ± 0.32
47 | TAACATATCTTTAATACACACTTAAAAAAGTACTTA [CACACA_site4532] | 8.48 ± 0.4
48 | AATAATATTGAAATGTGTACGTATTTATATTTTATG [XGTACX_site8252] | 8.88 ± 0.42
49 | TTTTGTTATATTCAATATTTATATATTATAAATATA [CACACA_negctrl_site1705] | 8.36 ± 0.38
50 | TTTTTCTTTTTTACAGTGCATAAATATATGTATTGT [GTGCAC_site9399] | 8.77 ± 0.38
51 | TTGTGAATAACTAAGAAGAAAAAGATAAATATGTAT [TGCATGCA_negctrl_site388] | 8.64 ± 0.58
52 | TATTCATGCATATACACACACATATATTTATATTTT [CACACA_site7786] | 9.26 ± 0.36
53 | ACATATATATAATATATATTTTTCGTGTGGTGTCAC [CACACA_negctrl_site543] | 8.84 ± 0.42
54 | GAGCACCAAAATATATGTACATATGATAAATGTGAA [XGTACX_site1130] | 8.96 ± 0.51
55 | AATATATATATAGGATGTACACATAATTCAAATATA [XGTACX_site2755] | 8.99 ± 0.43
56 | ATCATTGAAGTTAAAAATATAAAGTATTCAGAAGGG [XGTACX_negctrl_site560] | 8.73 ± 0.52
57 | TTTTTTATTTTATTTTTTTCTGCTTATCCACATTAG [XGTACX_negctrl_site108] | 8.52 ± 0.73
58 | TCACTTTTATAATATAATATTCTATATCTTATTTTT [GTGCAC_negctrl_site717] | 8.69 ± 0.59
59 | AGCCATTATAATTCTTGTACATAATATAGCTATTTT [XGTACX_site1723] | 9.03 ± 0.43
60 | TATATAGTAATTTATTCACACAATTGGCACACCTCA [CACACA_site4679] | 9.06 ± 0.57
61 | TATTTAAATTGTAAGTGTACATATATAAATGTAAAA [XGTACX_site1609] | 8.6 ± 0.45
62 | TATAATATATATTTGTGTCCACAACATTTTTAATAT [XGTACX_site2089] | 8.72 ± 0.49
63 | AATAAATTAAAACAGGTGCACTATATTACACACGCT | 9.36 ± 0.42
64 | TAGATACAGAAACACACACACACATACATATATACA [CACACA_site3437] | 9.97 ± 0.24
65 | AGAATTATTGTTAATGCATGTGGAAGTTAAAATATT [TGCATGCA_site188] | 8.72 ± 0.41
66 | TTATGGAGAGTTATATGTACGAAAAATATGTATAAG [XGTACX_site515] | 8.62 ± 0.47

Row | Sequence | gcPBM binding intensity (ln)
67 | AATAATATATGGTGTACACAAAAGTATAAATAATTT [CACACA_site5338] | 9.2 ± 0.51
68 | TATAAAAAAATAATAAATAAATAAAAAGATTTCTTT [TGCATGCA_negctrl_site122] | 8.26 ± 0.5
69 | TAGATACATACACGCACACACATATATAAATAAATA [CACACA_site6157] | 9.68 ± 0.35
70 | TAATTATGTACTATTATACACACGTTTAATTGTAAA [CACACA_site206] | 8.74 ± 0.42
71 | AAAAAAAACAGACACACACACATACACATACATACA [CACACA_site2857] | 10.2 ± 0.19
72 | TTACGTATGTATTATGTTGTATATGAAATTAAAAAA [GTGCAC_negctrl_site292] | 8.33 ± 0.57
73 | TAAAAAAATATATATACATGCATAGAAAAAAAAAAA [TGCATGCA_site552] | 8.75 ± 0.48
74 | ACACAAAAAATAAAAATATATATATATTATATATAT [CACACA_negctrl_site1489] | 8.81 ± 0.45
75 | TAATAATAAATTGGTTGTACAACCTTATACAGAATA [XGTACX_site2592] | 8.59 ± 0.42
76 | TTTTAAACAAAAATTTGTACACAATAATTAAATATA [XGTACX_site6755] | 8.32 ± 0.58
77 | ATTTAATTTTTTTTTTTTTTTTTTCAATCCCCTTTT [CACACA_negctrl_site1013] | 8.32 ± 0.76
78 | CATTTTAAAGAAAATACACACAAAAATAAATATATA [CACACA_site1395] | 8.81 ± 0.49
79 | TTTTTTTATTAAAAATGTACAAAAATGAAAAAATAA [XGTACX_site8279] | 8.33 ± 0.45
80 | CATATAATTTTATGGGTGCATTTTTTTGTAAGACCA | 8.5 ± 0.48
81 | TTAAAAAAAAAAAGGTGTACTATAATTTAATATCAC [XGTACX_site6316] | 8.46 ± 0.49
82 | TATATTTACGTATGTCGAACGTTATTTTGAACAACC [CACACA_negctrl_site1261] | 8.73 ± 0.49
83 | TATTCAACATAATATGCACACAAAAATTATGGAACG [CACACA_site8660] | 9.14 ± 0.44
84 | TTTAATTTTTTTTAAACACACACATTACATTCAAAA [CACACA_site7926] | 8.82 ± 0.49
85 | TTATATTATGCTTGAATGCACTTTGAAGCACAATCT [GTGCAC_site9789] | 8.68 ± 0.54
86 | AATATATAATTTTATAGTACATAATAAAAGAACAGG [XGTACX_site724] | 8.79 ± 0.43
87 | ATCACATAAAATATGAATATATATTTTATATATATA [CACACA_negctrl_site340] | 8.56 ± 0.4
